Data from PubChem BioAssay AID1347073 (National Center for Advancing Translational Sciences (NCATS), 2019).
Among all 45,000 compounds or so, about 200 (0.44%) were called active. Another 7% or so got no clear call; they are omitted. The call rests on the fitted dose curve; in most records, active means well fitted activation curve with a large enough effect; inconclusive means small, poorly fitted or top-dose-only effect; inactive means no such curve, though single readings can be large or run the other way. The list shows a part of the results.

experiment: qHTS of TDP-43 Inhibitors: NCGC Sytravon Library Screen; settings: yeast TDP-43 toxicity rescue, BacTiter-Glo growth, 24 h; series mostly up to 46.1 µM; growth rescue (activation): at the top concentration; further: 0% is about no effect; nearly all actives have a fitted effect of over 55% in size
Outline: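 TDP-43-expressing yeast, pregrown in raffinose, seeded at OD600 0.02 in galactose medium with compound for 24 hr at 30 deg C. Growth read by BacTiter-Glo luminescence, so rescue of toxicity appears as activation.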

Row | Structure (SMILES) | growth rescue (activation)
1 | CCC(NS(=O)(=O)c1ccc(OC)cc1)C(=O)NCCc1ccccc1 (configuration not stated) | inactive: 13.3%
2 | CCN1CCCC1CN(Cc1cc2ccc(C)cc2[nH]c1=O)C(=S)Nc1cccc(OC)c1 (configuration not stated) | inactive: -21.3%
3 | O=C(CCSc1nc(-c2ccco2)cc(C(F)(F)F)n1)NCC1CCCO1 (configuration not stated) | inactive: 17.1%
4 | CCOC(=O)c1cc(-c2ccccc2)n(CCC(=O)N2CCN(c3ccccn3)CC2)c1C | inactive: 3.47%
5 | NC(=O)CSc1ccc(F)cc1 | inactive: 9.59%
6 | COc1ccc(CCNCc2c(-c3ccccc3)n(C)c3ccccc23)cc1 | inactive: -0.0813%
7 | NC(=O)C1CCN(c2nc3ccccc3nc2NS(=O)(=O)c2ccc(Br)cc2)CC1 | inactive: 6.35%
8 | COC(=O)c1ccc(CC2(C)C(=O)Nc3ccc(OC(F)(F)F)cc32)o1 (configuration not stated) | inactive: -6.69%
9 | O=C(O)CCn1c(-c2ccccn2)nc2ccccc21 | inactive: 0.438%
10 | O=C(O)c1csc(Cc2ccccc2)n1 | inactive: 6.15%
11 | CCn1c(=O)c2sccc2n(CC(=O)NC2CCCCC2)c1=O | inactive: 14.3%
12 | O=[N+]([O-])c1ccc(O)c(/C=N/Nc2ccccn2)c1 | inactive: -92.7%
13 | O=C1OCCN1CC(=O)N1CCc2c([nH]c3ccccc23)C1c1ccccn1 (configuration not stated) | inactive: 6.25%
14 | COc1ccc(NC(=O)/C(=C/c2cccnc2)NC(=O)c2cccs2)cc1 | inactive: 4.1%
15 | CCC(C)NC(=O)CN(C1CCCCC1)S(C)(=O)=O (configuration not stated) | inactive: -13.7%
16 | CC(O)(c1cccnc1)c1nc(-c2cccc3cccnc23)cs1 (configuration not stated) | inactive: 3.62%
17 | Cn1cnnc1SCC(=O)Nc1ncc([N+](=O)[O-])s1 | inactive: -13.7%
18 | Cc1cccc(C)c1NC(=O)C1(NC(=O)Cn2cccc([N+](=O)[O-])c2=O)CCCCC1 | inactive: -34.6%
19 | Cc1noc(C)c1CSc1nnc2n(-c3ccccc3)c(=O)c3ccccc3n12 | inactive: 30.8%
20 | COc1ccccc1-c1cc(N)n(S(=O)(=O)c2cccc3nsnc23)n1 | inactive: 23.4%
21 | OCCNCc1ccc(-c2ccccc2)cc1 | inactive: -15.9%
22 | Cc1ccc(C2(c3noc(CN(C)CCO)n3)CCCC2)cc1 | inactive: 1.69%

Row | Structure (SMILES) | growth rescue (activation)
23 | COc1ccc2c(c1)C(C)CC(C)(C)N2C(=O)CSc1ncn[nH]1 (configuration not stated) | inactive: 5.62%
24 | CC(C)c1ccccc1OCCNS(C)(=O)=O | inactive: 4.99%
25 | CCN(CC)S(=O)(=O)c1ccc2c(c1)N(CC(=O)NCc1ccc(F)cc1)C(=O)CO2 | inactive: 0.577%
26 | Cc1nc2nc(C)c(NS(=O)(=O)c3ccc(Cl)s3)c(=O)n2[nH]1 | inactive: 2.93%
27 | Cc1cc(C(=O)Nn2c(-c3ccncc3)nc3ccccc3c2=O)ccc1[N+](=O)[O-] | inactive: 14.1%
28 | COc1ccccc1NC(=O)CSc1nc2nc(C)cc(C)c2c(=O)[nH]1 | inactive: -12.9%
29 | CCC(C)n1c(SCC(=O)NCCc2ccc(S(N)(=O)=O)cc2)nc2ccsc2c1=O (configuration not stated) | inactive: 4.04%
30 | COc1ccccc1NS(=O)(=O)c1cccc(C(=O)N/N=C/c2ccccc2OCC(=O)O)c1 | inactive: 22.1%
31 | Cc1cc(C)c(C)c(S(=O)(=O)N[C@@H](C)C(=O)OCc2cc(=O)n3cc(Br)ccc3n2)c1C | inactive: -4.55%
32 | CC(Oc1ccc(Cl)cc1Cl)C(=O)NCCC1=CCCCC1 (configuration not stated) | inactive: 15.2%
33 | CCN(CC(=O)NCc1ccc(F)cc1)C(=O)C1CCN(S(=O)(=O)c2ccc(C(C)C)cc2)CC1 | inactive: 3.52%
34 | CC(C)NC(=O)NC(=O)COC(=O)c1ncc(Cl)c(Cl)c1Cl | inactive: 22.4%
35 | CC(C)(C)NC(=O)CCN(/N=C/c1ccc([N+](=O)[O-])o1)C1=NS(=O)(=O)c2ccccc21 | inactive: 7.2%
36 | CN(CP(=O)(O)CN(C)S(C)(=O)=O)S(C)(=O)=O | inactive: -15.8%
37 | COc1cccc(NC(=O)CCNS(=O)(=O)c2cccc3nonc23)c1 | inactive: 8.83%
38 | CC(=O)C1=C(O)C(=O)N(c2ccccn2)C1c1ccccc1[N+](=O)[O-] (configuration not stated) | inactive: -10%
39 | CC1CCCCN1C(=O)CCS(=O)(=O)Cc1ccccc1 (configuration not stated) | inactive: 8.52%
40 | CCCCNC(=O)N1CCN(Cc2cccc(F)c2)CC1 | inactive: -4.62%
41 | Cc1nc2nc(SCC(=O)NCCCN3CCCCCC3)nn2c(C)c1Cc1ccccc1 | inactive: -5.7%
42 | O=C(COc1ccc(Cl)cc1Cl)Nc1ccccc1NS(=O)(=O)c1cccs1 | inactive: -2.87%
43 | COc1ccc(S(=O)(=O)N2CCOCC2)cc1C(=O)Nc1ccc2c(c1)OCO2 | inactive: 21.5%
44 | COc1cccc(NC(=O)C(C)SCc2ccccc2)c1 (configuration not stated) | inactive: 25.6%

Row | Structure (SMILES) | growth rescue (activation)
45 | Cc1ccc2ccc(S(=O)(=O)NCc3ccccn3)cc2c1 | inactive: 23.3%
46 | CC(C)(C)CC(C)(C)NC(=O)c1ccc2snnc2c1 | inactive: 8.3%
47 | O=C(N/N=C/c1cccnc1)c1cccc(N2CCCC2=O)c1 | inactive: -7.7%
48 | CC1CN(c2ccccc2)CCN1Cc1nc(Cc2ccccc2)no1 (configuration not stated) | inactive: 22.9%
49 | O=c1c([N+](=O)[O-])c[nH]c2ccccc12 | inactive: 2.86%
50 | CC(=O)Nc1ccc(S(=O)(=O)NCC(=O)OCC(=O)NC(=O)C2CCCCC2)cc1 | inactive: 10%
51 | O=C(Nc1ccc(Br)cn1)c1ccc(Cl)s1 | inactive: 5.56%
52 | CC(=O)N1CCN(C(=O)C2CCN(S(=O)(=O)c3ccccc3C(F)(F)F)CC2)CC1 | inactive: 3.9%
53 | Cc1ccc(NC(=O)CSc2nc(N)c3c4c(sc3n2)CSC(C)(C)C4)cc1 | inactive: 13%
54 | CC(C)Cn1cc(C(=O)NCCCN2CCC(C)CC2)c2c3ccccc3n(C)c2c1=O | inactive: 14.1%
55 | O=C(COc1ccc(S(=O)(=O)N2CCOCC2)cc1)NCC1CCCO1 (configuration not stated) | inactive: 2.49%
56 | COc1ccc(NS(=O)(=O)c2ccc(Cl)c(C(=O)O)c2)cc1S(=O)(=O)N1CCCCC1 | inactive: 7.67%
57 | COc1ccc(N2CCN(C(=O)CSc3nnc(-c4ccco4)n3C)CC2)cc1 | inactive: -4.63%
58 | Cc1cccc(N2CC(C(=O)Nc3ccc(S(=O)(=O)N4CCOCC4)cc3)CC2=O)c1 (configuration not stated) | inactive: 2.27%
59 | CC(CC(=O)Nc1ccccc1)NCCCN1CCCC1=O (configuration not stated) | inactive: 4.79%
60 | COc1ccc(S(=O)(=O)Nc2c(C)c(C)cc3c2ncn3C)cc1 | inactive: -3.04%
61 | CCCCn1c(N)c(N(CC)C(=O)c2ccc(Cl)c(Cl)c2)c(=O)[nH]c1=O | inactive: 1.52%
62 | C=CCn1c(-c2ccccc2OC)n[nH]c1=S | inactive: -22.8%
63 | CCc1ccc(NC(=O)c2sc3nc(C)nc(N4CCN(c5ccccn5)CC4)c3c2C)cc1 | inactive: 9.98%
64 | O=C(NCCc1ccccc1)C(=O)Nc1nccs1 | inactive: 21.3%
65 | Brc1ccc(-c2cn3c(n2)SCC3)cc1 | inactive: 4.11%
66 | CS(=O)(=O)N(CC(=O)NCC1CCCO1)c1cc(Cl)ccc1Cl (configuration not stated) | inactive: -22.8%

Row | Structure (SMILES) | growth rescue (activation)
67 | CCOC(=O)C1=NOC(CN(c2ccccc2)S(=O)(=O)c2ccc(Cl)cc2)C1 (configuration not stated) | inactive: 21.9%
68 | CCOc1cc(NC(=S)NCCCOC)c(OCC)cc1NC(=O)c1cccs1 | inactive: 23.2%
69 | Cn1c(=O)c2c(nc(-n3ccnc3)n2C)n(C)c1=O | inactive: 1.93%
70 | Cc1cc(C)c(C(=O)Nc2cccc(F)c2)c(Cl)n1 | inactive: -3.71%
71 | CCOC(=O)C1CCN(C(=S)Nc2cc(C)ccc2C)CC1 | inactive: 16.8%
72 | OCCCN=c1cc(-c2ccccc2)oc2ccc(Cl)cc12 | inactive: 27.5%
73 | Cc1ccc(C)c(N(CC(=O)NC(C)(C)C)C(=O)CNC(=O)c2cccs2)c1 | inactive: -3.65%
74 | O=C(NCC1CCCO1)C(c1ccc(F)cc1)N(Cc1ccc2c(c1)OCO2)C(=O)c1ccc(CN2CCOCC2)o1 (configuration not stated) | inactive: 12.8%
75 | O=C1c2ccccc2C(=O)N1CCCCSc1nc2ccccc2c(=O)n1CCCN1CCOCC1 | inactive: -3.44%
76 | CCCc1cc2c(=O)c(-c3cscn3)c(C(=O)OCC)oc2cc1O | inactive: 16.6%
77 | Cc1ccc(C(=O)NC2CCN(CC(=O)Nc3ccccc3Cl)CC2)cc1 | inactive: -6.68%
78 | NS(=O)(=O)c1cccc(NC(=O)Nc2ccc(Cl)cc2)c1 | inactive: 7.65%
79 | COC(=O)C1CCN(C(=O)COc2ccc(S(=O)(=O)N3CCOCC3)cc2Cl)CC1 | inactive: -4.29%
80 | O=C(CCN1CCCCC1=O)NC1CCCN(Cc2ccc(Cl)cc2)C1 (configuration not stated) | inactive: 3.48%
81 | Cc1ccc(NC(=O)c2ccc(OC(=O)C(C)Oc3ccc(Cl)cc3C)cc2)cc1 (configuration not stated) | inactive: 11.2%
82 | Cc1oc2ccc(NS(=O)(=O)c3ccc(F)cc3)cc2c1C(=O)O | inactive: -1.21%
83 | O=C(c1cc(-c2cccc(Cl)c2)on1)N1CCc2ccccc2C1 | inactive: 5.02%
84 | CCCOC1CCCN(C(=O)c2ccc(OC3CCN(C(=O)CCOC)CC3)cc2)C1 (configuration not stated) | inactive: 3.29%
85 | CC(C)C1Cc2c(C#N)c(N)n(C)c(=S)c2CO1 (configuration not stated) | inactive: 16.5%
86 | Cc1cc(NC(=S)Nc2cccnc2)ccc1Br | inactive: 7.41%
87 | CCOC(=O)C1CCN(C(=O)CSc2n[nH]c(=O)[nH]c2=O)CC1 | inactive: -9.28%
88 | CC1CCN(Cc2nnnn2-c2cccc([N+](=O)[O-])c2)CC1 | inactive: 22.8%

Row | Structure (SMILES) | growth rescue (activation)
89 | CC(C)C(=O)Nc1cccc(-c2cn3ccccc3n2)c1 | inactive: -3.41%
90 | COc1ccc(CCCC(=O)N/N=C/c2cccc(OC)c2O)cc1C | inactive: 11.2%
91 | COc1ccc(/C=N/Nc2ncnc3c2[nH]c2ccccc23)c(OC)c1OC | inactive: 2.64%
92 | CS(=O)(=O)N(CC(=O)NCCSCc1ccccc1)c1ccccc1Cl | inactive: 2.72%
93 | CC(=O)c1ccc(OCc2cc(C(=O)N(C)C(C)c3ccon3)no2)cc1 (configuration not stated) | inactive: 15.6%
94 | O=C(CCN1C(=O)c2cccc3cccc(c23)C1=O)NCC1CCCO1 (configuration not stated) | inactive: 8.63%
95 | COc1cc2nc(N3CCN(c4cc(C)ccc4C)CC3)nc(N)c2cc1OC | inactive: 8.18%
96 | O=C(NC1CCS(=O)(=O)C1)c1ccc(S(=O)(=O)N2CCCC2)cc1 (configuration not stated) | inactive: 0.748%
97 | O=C(Nc1ccc2c(c1)C(=O)OC2)c1ccc(C(F)(F)F)cc1 | inactive: 9.35%
98 | CCCNC(=O)C1(C)CCCN(C(=O)c2sccc2C)C1 (configuration not stated) | inactive: -0.922%
99 | O=P(COCCOCCOCCOCP(=O)(c1ccccc1)c1ccccc1)(c1ccccc1)c1ccccc1 | inactive: 3.37%
100 | NC1=NC(=O)CC(C(=O)Nc2cccc3ccccc23)S1 (configuration not stated) | inactive: -1.44%
101 | COc1cccc(CN(C)C(=O)c2cc(S(=O)(=O)NC3CCCCC3)ccc2C)c1 | inactive: 14.3%
102 | CCN1CCN(c2ccc(S(=O)(=O)N3CCCC3)cn2)CC1 | inactive: 10.7%
103 | CCOC(=O)Nc1nnc(Cc2ccc(Cl)c(Cl)c2)s1 | inactive: 3.54%
104 | CCCn1c(SC(C)C(=O)NC2CCCC2)n[nH]c1=O (configuration not stated) | inactive: 15.4%
105 | COCCNc1ncnc2c1ncn2[C@H]1CN(Cc2cccs2)C[C@@H](CO)O1 | inactive: 2.32%
106 | Cc1cc(S(=O)(=O)N2CCCC(C(=O)Nc3ccc(C(=O)O)cc3)C2)ccc1Cl (configuration not stated) | inactive: -8.11%
107 | COc1ccc2nc(SCC(=O)NCC3CCCO3)c(C#N)cc2c1 (configuration not stated) | inactive: 6.92%
